Hit rate of the full screen: of about 310,000 compounds, about 2,200 (0.71%) showed an effect of 50% or more. Effects have a minus sign here. The list shows a part of the results.
molecular target: human ether-à-go-go-related gene (hERG) potassium channel (human, UniProt Q12809); experiment: primary screen, population patch clamp on CHO cells stably expressing hERG
Sequence (Q12809 whole entry, looked up): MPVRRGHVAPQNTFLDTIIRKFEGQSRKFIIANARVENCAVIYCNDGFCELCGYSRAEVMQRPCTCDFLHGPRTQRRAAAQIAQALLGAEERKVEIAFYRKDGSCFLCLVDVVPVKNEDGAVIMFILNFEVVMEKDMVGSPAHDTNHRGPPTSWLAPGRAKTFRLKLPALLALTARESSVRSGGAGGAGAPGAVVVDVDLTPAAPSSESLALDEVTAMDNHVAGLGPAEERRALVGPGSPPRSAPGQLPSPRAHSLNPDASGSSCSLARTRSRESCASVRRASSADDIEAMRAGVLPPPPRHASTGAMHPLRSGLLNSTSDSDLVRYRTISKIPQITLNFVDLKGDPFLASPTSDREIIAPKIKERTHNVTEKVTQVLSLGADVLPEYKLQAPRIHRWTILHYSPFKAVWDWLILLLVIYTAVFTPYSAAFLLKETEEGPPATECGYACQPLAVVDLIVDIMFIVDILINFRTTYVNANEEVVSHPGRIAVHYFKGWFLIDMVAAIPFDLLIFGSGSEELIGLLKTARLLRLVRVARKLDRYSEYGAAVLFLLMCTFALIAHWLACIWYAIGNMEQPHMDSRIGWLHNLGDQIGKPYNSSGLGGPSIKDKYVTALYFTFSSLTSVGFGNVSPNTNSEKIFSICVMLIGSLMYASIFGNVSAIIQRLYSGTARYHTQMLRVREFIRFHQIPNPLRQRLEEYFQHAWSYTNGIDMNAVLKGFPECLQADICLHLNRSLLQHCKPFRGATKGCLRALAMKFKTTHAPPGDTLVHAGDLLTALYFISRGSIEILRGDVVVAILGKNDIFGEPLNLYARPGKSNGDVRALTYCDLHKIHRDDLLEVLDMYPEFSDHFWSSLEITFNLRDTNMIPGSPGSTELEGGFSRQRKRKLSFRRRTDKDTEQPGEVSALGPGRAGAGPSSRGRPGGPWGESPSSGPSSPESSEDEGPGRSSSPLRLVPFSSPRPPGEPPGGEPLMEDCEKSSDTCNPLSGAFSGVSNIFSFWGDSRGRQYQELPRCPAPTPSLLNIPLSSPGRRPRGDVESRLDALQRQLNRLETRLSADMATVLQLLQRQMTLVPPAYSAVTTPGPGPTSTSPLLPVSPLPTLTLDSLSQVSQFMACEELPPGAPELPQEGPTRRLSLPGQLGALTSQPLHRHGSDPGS

SMILES | hERG current change (%, negative = inhibition) at 1uM [%]
O=C(c1ccccc1F)c1cn(Cc2ccc(F)cc2)c2ccccc12 | 11.7
S=c1[nH]nc(-c2ccc(Br)o2)n1Cc1ccccc1 | 7.85
CCC(=O)N1CCc2cc(S(=O)(=O)NC(Cc3ccccc3)C(=O)O)ccc21 (stereo not shown) | 18
COc1ccc(-c2c(C#Cc3ccsc3)c3cc(Br)ccc3n2C)cc1 | -6.65
CCOc1ccc(CC(=O)Nc2c(C(=O)Nc3ccccc3)oc3ccccc23)cc1OCC | -0.0444
Brc1ccccc1-n1nnc(-c2cnc3ccccc3c2)n1 | 12.7
CN(C(=O)COC(=O)c1ccccc1OCc1ccc(F)cc1)C1CCS(=O)(=O)C1 (stereo not shown) | 6.37
Cc1cc(=O)[nH]c(SCc2cccc(F)c2)n1 | 16.8
COc1ccc(CCNC(=O)c2c(C)cc(=O)oc2C)cc1OC | 8.94
COC(=O)c1sc(NC(=S)NNC(=O)c2c(Br)c(C)nn2C)c(C(=O)OC)c1C | 10.4
Cc1cccc(-c2n[nH]c(=S)n2Cc2ccccc2)c1 | 10.8
Cc1nc2ccc(S(=O)(=O)NCC(=O)NCCN3CCCCCC3)cc2s1 | 20.4
CCC1(c2ccccc2)NC(=O)N(CC(=O)N(C)CC(=O)Nc2cccc(OC)c2)C1=O (stereo not shown) | 14
C[N+]1(CCC(=O)c2ccccc2)CCCCC1.[I-] | 7
COc1ccc(CCNC(=S)NC(=O)c2cccc(Cl)c2)cc1OC | 6.74
CCOC(=O)c1ccc(N2C(=O)c3n[nH]c(C)c3C2c2ccc(OC)cc2OC)cc1 (stereo not shown) | -0.35
Cc1c(Br)c(=O)oc2c(Br)c(O)ccc12 | 13.8
Cn1c2ccccc2c2cc(/C=N/NC(=O)c3ccc(O)cc3O)ccc21 | 6.69
COc1ccc(NC(=O)CN(C)S(=O)(=O)c2ccc(Cl)cc2)c([N+](=O)[O-])c1 | 5
COc1ccc2nc(NC(=O)C3CCCN(S(=O)(=O)c4cccs4)C3)sc2c1 (stereo not shown) | 15.7

SMILES | hERG current change (%, negative = inhibition) at 1uM [%]
CCCC(C)C(=O)Nc1ccc(NC(C)=O)cc1 (stereo not shown) | 12.5
Cn1c(=O)oc2cc(S(=O)(=O)NCCC(=O)NCCc3ccc(Cl)cc3)ccc21 | -6.21
COc1ccc(CN2CCCN(S(=O)(=O)c3ccc(Br)cc3)CC2)cc1 | -75.6
CCN(CC(=O)NC)S(=O)(=O)c1ccc(Br)cc1 | 12.4
CCN(CC)C(=O)CSC1=C(C#N)C(c2ccco2)C(C(=O)OCCOC)=C(C)N1 (stereo not shown) | 16.1
Cc1nn(C(C)C(=O)N2CCOCC2)c(C)c1[N+](=O)[O-] (stereo not shown) | 12
CN(C)CCOc1ccccc1C(C)(C)C.O=C(O)C(=O)O | 8.1
O=C(NC1CCCC1)c1cc2nc(-c3ccccc3)cc(-c3ccccc3)n2n1 | 3.59
CNC(=O)c1sccc1-n1cccc1 | 8.16
CN1CC=C2C(C#N)=C(N)C(C#N)(C#N)C(c3ccncc3)C2C1 (stereo not shown) | 7.1
COc1ccc(CN(C)C(=O)c2cc(S(=O)(=O)N3CCCCCC3)ccc2OC)cc1OC | 4.44
Cn1cc(CN2CCN(Cc3ccccc3)CC2)c(-c2cccc(Cl)c2)n1 | -4.71
COc1cc(CC(C#N)(CO)c2nc3ccccc3[nH]2)ccc1OC(F)F (stereo not shown) | 1.16
COc1ccccc1C(O)P(=O)(OCC(C)C)c1ccc(N(C)C)cc1 (stereo not shown) | 10.5
CCCc1nnc(SCC(=O)Nc2ccc(OC)cc2)o1 | 19.3
Cc1nn(C(=O)N2CCOCC2)c(C)c1CN1C(=O)c2ccccc2C1=O | 1.67
Cc1c(NC(=O)c2ccc3ncccc3c2)c(=O)n(-c2ccccc2)n1C | 21.5
Cc1ccc(C(C)C)c(OCCn2ccnc2C)c1.O=C(O)C(=O)O | 2.68
CCC1CCCCN1CCCNC(=O)Cn1nc(C)n2nc(-c3ccccc3)cc2c1=O (stereo not shown) | -8.24
Cc1cccc(NC(=O)C2=C(O)c3ccccc3N(C)S2(=O)=O)c1 | 15.3

SMILES | hERG current change (%, negative = inhibition) at 1uM [%]
COc1ccccc1C1NC(=O)CS1 (stereo not shown) | 0.249
O=C(CCSc1nnc(-c2ccncc2)o1)Nc1ccccc1 | 5.86
O=C(Nc1ccc(F)c(Cl)c1)C1CCCC1 | 22.5
Fc1ccc(-c2cc(C(F)(F)F)nc(N3CCCCC3)n2)cc1 | 16.5
CCn1c(SCC(=O)Nc2ccc3[nH]c(=O)[nH]c3c2)nc2ccccc21 | 13.9
CC1C/C(=N\NC(=S)NCc2ccccc2)CC(C)(C)C1 (stereo not shown) | -6.95
Cl.OCCCCNCc1ccc(OCc2ccccc2Cl)cc1 | -2.14
CC(=O)c1c(C)n(C2CCCCC2)c2ccc(O)cc12 | 5.3
CC1CC(C)CN(C(=O)c2ccc3ncsc3c2)C1 (stereo not shown) | 23
CC(C)CC(OC(=O)c1nsc(Cl)c1Cl)C(=O)NCc1cccs1 (stereo not shown) | 1.18
COc1ccccc1NC(=O)CN1CCN(C(=O)c2ccco2)CC1 | -0.396
CCOc1ccc(NS(=O)(=O)c2cc(C(=O)N3CCC3)ccc2Cl)cc1 | 7.4
CN(CC(=O)Nc1ccc(Cl)cc1)CC(=O)Nc1cccc2ccccc12 | 6.76
COc1ccc(-n2c(O)cnc2Nc2nc(C)cc(C)n2)cc1OC | 10.2
Cc1cccc(NC(=S)NCc2ccco2)c1C | 7.94
CN(Cc1ccco1)S(=O)(=O)c1nnc(NC(=O)c2ccccc2Cl)s1 | 19.9
N#C/C(=C(/O)COC(=O)c1ccc(O)cc1)c1nc2ccccc2[nH]1 | 11.9
Cn1cnnc1SCC(=O)NC(=O)NCc1ccccc1 | 7.59

Reference: PMC4336329 (PLoS ONE, 2015)
